Laboratory results from the supplement of paper PMC9151546.
Repeats are few or missing, and single values can be far off.

Experiments:
CHO-K1 [1] = assay: relative survival (nuclei to bead ratio vs DMSO control) (% of vehicle control); higher = more surviving cells
Method: (§1)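 Flow-cytometric in vitro micronucleus assay (Litron MicroFlow) in CHO-K1 cells in 96-well plates, 19 concentrations (4.5-200 µM, n=1 per concentration). Without S9, cells were exposed for 24 h and sampled at 48 h. With Aroclor 1254-induced rat liver S9, cells were exposed for 3-4 h and sampled at 27-28 h. Read-outs are %MN and %hypodiploid nuclei relative to nucleated events, and relative survival as the nuclei-to-bead ratio versus the 1% DMSO vehicle control (x100).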

CHO-K1 [2] = assay: hypodiploid nuclei frequency (% of nucleated events); higher = more hypodiploid events (aneugenic)
Method: as §1

CHO-K1 [3] = assay: micronucleus frequency (% of nucleated events); higher = more micronuclei (genotoxic)
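Wherever hypodiploid nuclei frequency (% of nucleated events) is given: hypodiploid nuclei gated on a flow cytometer with 488 nm excitation after SYTOX Green staining, cultures at 37 °C, positive controls vinblastine without S9 and cyclophosphamide with S9.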
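Wherever micronucleus frequency (% of nucleated events) is given: cells lysed with nuclei stained by SYTOX Green, then micronucleus-gated events counted against nucleated events by flow cytometry with 488 nm excitation.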
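Wherever relative survival (nuclei to bead ratio vs DMSO control) is given: Lysed-cell nuclei stained with SYTOX Green and counted against counting beads by flow cytometry at 488 nm excitation, with vinblastine (no S9) and cyclophosphamide (plus S9) as positive controls.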

Nc1cccc2c(N)cccc12 [1,5-Naphthalenediamine]
Details | hypodiploid nuclei frequency, CHO-K1 [2] [%] | micronucleus frequency, CHO-K1 [3] [%] | relative survival, CHO-K1 [1]
concentration: 4.5 (µM), S9 metabolic activation: with S9, exposure time: 3-4 hours | – | – | 45.7
concentration: 4.5 (µM), S9 metabolic activation: without S9, exposure time: 24 hours | 0.54 | 1.16 | 130
concentration: 5.63 (µM), S9 metabolic activation: with S9, exposure time: 3-4 hours | – | – | 45.5
concentration: 5.63 (µM), S9 metabolic activation: without S9, exposure time: 24 hours | 0.28 | 1.12 | 102
concentration: 7.04 (µM), S9 metabolic activation: with S9, exposure time: 3-4 hours | – | – | 41.6
concentration: 7.04 (µM), S9 metabolic activation: without S9, exposure time: 24 hours | 0.48 | 1.4 | 106
concentration: 8.8 (µM), S9 metabolic activation: with S9, exposure time: 3-4 hours | – | – | 38
concentration: 8.8 (µM), S9 metabolic activation: without S9, exposure time: 24 hours | 0.6 | 1.12 | 84.5
concentration: 11 (µM), S9 metabolic activation: with S9, exposure time: 3-4 hours | – | – | 38.7
concentration: 11 (µM), S9 metabolic activation: without S9, exposure time: 24 hours | 0.64 | 1.22 | 90.3
concentration: 13.7 (µM), S9 metabolic activation: with S9, exposure time: 3-4 hours | – | – | 38
concentration: 13.7 (µM), S9 metabolic activation: without S9, exposure time: 24 hours | 0.38 | 1.32 | 117
concentration: 17.2 (µM), S9 metabolic activation: with S9, exposure time: 3-4 hours | – | – | 43.6
concentration: 17.2 (µM), S9 metabolic activation: without S9, exposure time: 24 hours | 0.62 | 1.02 | 76.5
concentration: 21.5 (µM), S9 metabolic activation: with S9, exposure time: 3-4 hours | – | – | 42.3
concentration: 21.5 (µM), S9 metabolic activation: without S9, exposure time: 24 hours | 0.58 | 1.06 | 90
concentration: 26.8 (µM), S9 metabolic activation: with S9, exposure time: 3-4 hours | – | – | 41.6
concentration: 26.8 (µM), S9 metabolic activation: without S9, exposure time: 24 hours | 0.82 | 1.48 | 93.1
concentration: 33.6 (µM), S9 metabolic activation: with S9, exposure time: 3-4 hours | – | – | 34.4
concentration: 33.6 (µM), S9 metabolic activation: without S9, exposure time: 24 hours | 0.8 | 1.32 | 114
concentration: 41.9 (µM), S9 metabolic activation: with S9, exposure time: 3-4 hours | – | – | 43
concentration: 41.9 (µM), S9 metabolic activation: without S9, exposure time: 24 hours | 0.76 | 1.54 | 107
concentration: 52.4 (µM), S9 metabolic activation: with S9, exposure time: 3-4 hours | – | – | 41.7
concentration: 52.4 (µM), S9 metabolic activation: without S9, exposure time: 24 hours | 0.64 | 1 | 103
concentration: 65.5 (µM), S9 metabolic activation: with S9, exposure time: 3-4 hours | – | – | 47.8
concentration: 65.5 (µM), S9 metabolic activation: without S9, exposure time: 24 hours | 0.82 | 0.9 | 104
concentration: 81.9 (µM), S9 metabolic activation: with S9, exposure time: 3-4 hours | – | – | 37.83
concentration: 81.9 (µM), S9 metabolic activation: without S9, exposure time: 24 hours | 1.58 | 1.82 | 82.2
concentration: 102 (µM), S9 metabolic activation: with S9, exposure time: 3-4 hours | – | – | 40
concentration: 102 (µM), S9 metabolic activation: without S9, exposure time: 24 hours | 2 | 1.52 | 81.2
concentration: 128 (µM), S9 metabolic activation: with S9, exposure time: 3-4 hours | 2.86 | 17 | 47.4
concentration: 128 (µM), S9 metabolic activation: without S9, exposure time: 24 hours | 2.28 | 1.38 | 89.1
concentration: 160 (µM), S9 metabolic activation: with S9, exposure time: 3-4 hours | 2.63 | 13.9 | 54.8
concentration: 160 (µM), S9 metabolic activation: without S9, exposure time: 24 hours | 23.3 | 2.08 | 44.1
concentration: 200 (µM), S9 metabolic activation: with S9, exposure time: 3-4 hours | 2.04 | 10.3 | 48.9
concentration: 200 (µM), S9 metabolic activation: without S9, exposure time: 24 hours | – | – | 18.2

Cc1ccc(Cl)cc1 [4-Chlorotoluene]
Details | hypodiploid nuclei frequency, CHO-K1 [2] [%] | micronucleus frequency, CHO-K1 [3] [%] | relative survival, CHO-K1 [1]
concentration: 4.5 (µM), S9 metabolic activation: with S9, exposure time: 3-4 hours | 0.34 | 0.94 | 98.6
concentration: 4.5 (µM), S9 metabolic activation: without S9, exposure time: 24 hours | 0.38 | 1.54 | 89.5
concentration: 5.63 (µM), S9 metabolic activation: with S9, exposure time: 3-4 hours | 0.14 | 1.12 | 86.3
concentration: 5.63 (µM), S9 metabolic activation: without S9, exposure time: 24 hours | 0.52 | 1.02 | 88.6
concentration: 7.04 (µM), S9 metabolic activation: with S9, exposure time: 3-4 hours | 0.32 | 1.18 | 78.5
concentration: 7.04 (µM), S9 metabolic activation: without S9, exposure time: 24 hours | 0.52 | 2.04 | 85.6
concentration: 8.8 (µM), S9 metabolic activation: with S9, exposure time: 3-4 hours | 0.38 | 1.4 | 109
concentration: 8.8 (µM), S9 metabolic activation: without S9, exposure time: 24 hours | 0.56 | 1.88 | 88.9
concentration: 11 (µM), S9 metabolic activation: with S9, exposure time: 3-4 hours | 0.2 | 1.08 | 101
concentration: 11 (µM), S9 metabolic activation: without S9, exposure time: 24 hours | 0.68 | 1.52 | 94.9
concentration: 13.7 (µM), S9 metabolic activation: with S9, exposure time: 3-4 hours | 0.18 | 1.08 | 95.1
concentration: 13.7 (µM), S9 metabolic activation: without S9, exposure time: 24 hours | 0.48 | 1.9 | 84.2
concentration: 17.2 (µM), S9 metabolic activation: with S9, exposure time: 3-4 hours | 0.26 | 1.42 | 77.7
concentration: 17.2 (µM), S9 metabolic activation: without S9, exposure time: 24 hours | 0.66 | 1.58 | 91.1
concentration: 21.5 (µM), S9 metabolic activation: with S9, exposure time: 3-4 hours | 0.28 | 1.18 | 112
concentration: 21.5 (µM), S9 metabolic activation: without S9, exposure time: 24 hours | 0.44 | 1.46 | 85
concentration: 26.8 (µM), S9 metabolic activation: with S9, exposure time: 3-4 hours | 0.14 | 0.64 | 117
concentration: 26.8 (µM), S9 metabolic activation: without S9, exposure time: 24 hours | 0.6 | 1.42 | 94.9
concentration: 33.6 (µM), S9 metabolic activation: with S9, exposure time: 3-4 hours | 0.26 | 1.06 | 103
concentration: 33.6 (µM), S9 metabolic activation: without S9, exposure time: 24 hours | 0.52 | 1.78 | 103
concentration: 41.9 (µM), S9 metabolic activation: with S9, exposure time: 3-4 hours | 0.2 | 1.24 | 106
concentration: 41.9 (µM), S9 metabolic activation: without S9, exposure time: 24 hours | 0.72 | 1.86 | 102
concentration: 52.4 (µM), S9 metabolic activation: with S9, exposure time: 3-4 hours | 0.32 | 0.86 | 116
concentration: 52.4 (µM), S9 metabolic activation: without S9, exposure time: 24 hours | 0.62 | 1.66 | 103
concentration: 65.5 (µM), S9 metabolic activation: with S9, exposure time: 3-4 hours | 0.12 | 0.96 | 98
concentration: 65.5 (µM), S9 metabolic activation: without S9, exposure time: 24 hours | 0.8 | 1.74 | 99.7
concentration: 81.9 (µM), S9 metabolic activation: with S9, exposure time: 3-4 hours | 0.14 | 1.32 | 138
concentration: 81.9 (µM), S9 metabolic activation: without S9, exposure time: 24 hours | 0.88 | 1.48 | 102
concentration: 102 (µM), S9 metabolic activation: with S9, exposure time: 3-4 hours | 0.34 | 1.46 | 123
concentration: 102 (µM), S9 metabolic activation: without S9, exposure time: 24 hours | 0.68 | 1.6 | 91.4
concentration: 128 (µM), S9 metabolic activation: with S9, exposure time: 3-4 hours | 0.24 | 1.46 | 93.4
concentration: 128 (µM), S9 metabolic activation: without S9, exposure time: 24 hours | 1.02 | 2.16 | 98.2
concentration: 160 (µM), S9 metabolic activation: with S9, exposure time: 3-4 hours | 0.34 | 1.32 | 127
concentration: 160 (µM), S9 metabolic activation: without S9, exposure time: 24 hours | 0.98 | 2.2 | 89.8
concentration: 200 (µM), S9 metabolic activation: with S9, exposure time: 3-4 hours | 0.4 | 1.66 | 111
concentration: 200 (µM), S9 metabolic activation: without S9, exposure time: 24 hours | 1.3 | 2.84 | 95.2
